Data taken from PubChem BioAssay AID485344 (National Center for Advancing Translational Sciences (NCATS), 2010).
Several values for one entry are separate records, joined by “and”; a condition that tells them apart may be missing. Identical values can stand only once. The whole screen tested about 340,000 compounds, of which about 6,900 (2%) were called active. Rule as the data show it: active = inhibition above about 30%; inactive = below that, where a call was filed. The list shows a part of the results, in another mix than the full data. Where no call is shown, the source filed none.
Also: 0% is about no effect.

What follows are compounds tested against D(2) dopamine receptor (Homo sapiens) (UniProt P14416) (assay: HTS Assay for Allosteric Antagonists of the Human D2 Dopamine Receptor: Primary Screen for Antagonists). Conditions: HEK293 TREx D2 cells, calcium flux, dopamine EC80; at 10 µM; stronger effect = higher value.
Chain of UniProt P14416 (P14416 whole entry, looked up): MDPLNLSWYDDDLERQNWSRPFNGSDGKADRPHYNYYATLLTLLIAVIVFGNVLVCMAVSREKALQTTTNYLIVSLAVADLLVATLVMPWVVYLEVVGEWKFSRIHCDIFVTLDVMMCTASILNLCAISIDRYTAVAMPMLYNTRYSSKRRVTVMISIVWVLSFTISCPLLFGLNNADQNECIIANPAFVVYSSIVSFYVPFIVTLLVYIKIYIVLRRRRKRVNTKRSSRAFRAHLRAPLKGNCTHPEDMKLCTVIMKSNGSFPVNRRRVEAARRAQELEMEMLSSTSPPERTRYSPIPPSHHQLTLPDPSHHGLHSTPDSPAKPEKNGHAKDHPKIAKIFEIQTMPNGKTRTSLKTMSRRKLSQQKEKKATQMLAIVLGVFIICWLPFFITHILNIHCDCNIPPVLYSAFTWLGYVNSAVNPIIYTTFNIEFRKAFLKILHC
Outline: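 Measurement of antagonist activity uses fluorescent calcium dye in inducible HEK293 T-REx D2 cells: 10 s baseline, compound addition with 180 s read, EC80 dopamine addition with a further 180 s read.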
For `CCc1ccccc1NC(=O)c1cnc2sc(N3CCCC3)nn2c1=O`, the inhibition was 11.7%.
For `CCOc1ccc(-c2nn(CC(=O)NC3CCCC3)c3c2cnc2ccc(F)cc23)cc1`, the inhibition was -8.13%.
Compound `COc1cccc(C(=O)Nc2cccc(-c3cn4c(C)csc4n3)c2)c1OC` has an inhibition of 15.5%.
`Cc1cccc(N2CCN(C(=O)CCn3c(=O)c4cccn4c4cccnc43)CC2C)c1` (stereo unspecified) was tested, and the inhibition was 1.81%.
For `COc1ccc(Cl)cc1NC(=O)NCCN1CCCCC1`, the inhibition was active: 58.2%.
`Cc1cccc(-c2nc3c4ccccc4nc(N4CCN(c5cc(C)ccc5C)CC4)n3n2)c1` gave an inhibition of -16.3%.
Work on `COc1ccc(-c2cc(C(F)(F)F)nc(SCC(=O)NCCc3ccccc3)n2)cc1OC` yielded an inhibition of 10.4%.
Work on `CCc1sc(Nc2cccc(C)c2C)nc1-c1cc2cccc(OC)c2oc1=O` yielded an inhibition of 2.37%.
In the case of `COc1ccc(F)c(-c2nc(CN3CCC(c4ccccc4)CC3)c(C)o2)c1`, the inhibition is reported as active: 93.5%.
Work on `COc1cc(OC)cc(-n2c(=O)c3sccc3n(Cc3c(C)cc(C)cc3C)c2=O)c1` yielded an inhibition of -1.51%.
In the case of `Cc1ccc(NC(=O)c2cc(S(=O)(=O)N3CCc4ccccc43)ccc2F)cc1Cl`, the inhibition is reported as 0.88%.
`COc1ccc(NC(=O)CSc2nc3ccccc3n2Cc2cccc(OC)c2)cc1` showed an inhibition of -20.8%.
With `CCOc1ccc(NC(=O)C2CCN(c3nnc(-n4c(C)ccc4C)s3)CC2)cc1` the inhibition was 2.91%.
`Cc1cc(S(=O)(=O)Nc2ccc(-c3ccc(N4CCCCCC4)nn3)cc2)c(C)cc1Cl` gave an inhibition of 14%.
For `Cc1nc(-c2cccnc2)sc1CCNS(=O)(=O)c1ccc(F)cc1`, the inhibition was 0.663%.
For `COCCNC(=O)c1cccc(-n2c(C)nc3cccnc32)c1`, the inhibition was -5.98%.
In the case of `CC(=O)Nc1ccc(OCC(O)CN2CCN(c3ccc(F)cc3)CC2)cc1` (stereo unspecified), the inhibition is reported as active: 44.6%.
`CCc1ccccc1Nc1cc(C(=O)NC(C)c2ccccc2)c2ccccc2n1` (stereo unspecified) was tested, and the inhibition was -12%.
Work on `COc1cc(C2c3c(-c4cc(C)ccc4O)n[nH]c3C(=O)N2CCCO)ccc1OCCC(C)C` (stereo unspecified) yielded an inhibition of -22.2%.
In the case of `CCCc1nn2c(=O)cc(COC(=O)c3ccccc3NC(=O)c3ccc(Cl)cc3)nc2s1`, the inhibition is reported as 18.4%.
`CCOC(=O)c1ccccc1NC(=O)N1CCC(CN2CCCCC2)CC1` was tested, and the inhibition was 3.34%.
With `CCOc1ccc(NC(=O)CN2CCCN(Cc3cc(C)ccc3C)S2(=O)=O)cc1` the inhibition was 8.42%.
`CCCC(=O)Nc1ccc(-c2nc3ncccc3o2)cc1C` showed an inhibition of -12.4%.
In the case of `CCOC(=O)c1cccc(NC(=O)CCn2nc(C)c(S(=O)(=O)N3CCCCC3)c2C)c1`, the inhibition is reported as 7.51%.
`Cc1ccc(NC(=O)C(C)Sc2nc(=O)cc(N)n2-c2ccccc2)cc1` (stereo unspecified) was tested, and the inhibition was 6.89%.
`Cn1cc(S(=O)(=O)c2cccc(Cl)c2)c(=O)c2cc(F)c(N3CCN(c4ccccc4)CC3)cc21` gave an inhibition of 23.6%.
With `Cc1ccc2c(=O)c(C(=O)c3cccc(Cl)c3)cn(CC(=O)Nc3ccc4c(c3)OCCO4)c2n1` the inhibition was -3.79%.
`O=C(CSc1nnc(NC(=O)Nc2ccccc2)s1)Nc1cccc(F)c1` gave an inhibition of 21.7%.
In the case of `COc1ccc(CCCc2nnc(SCC(=O)Nc3ccc(OC)cc3)o2)cc1`, the inhibition is reported as -12.7%.
`CN1C(=O)Cc2cc(S(=O)(=O)CCC(=O)Nc3ccc(F)c(Cl)c3)ccc21` was tested, and the inhibition was -11.2%.
For `COc1ccc(C2(c3ccc(OC)cc3)NC(=O)N(CC(=O)NCC(C)c3ccccc3)C2=O)cc1` (stereo unspecified), the inhibition was active: 67.8%.
With `O=C(Nc1cc(F)ccc1F)N1CCC(CN2CCCC2)CC1` the inhibition was 3.51%.
With `Cc1ccc(C)c(NC(=O)c2cc(S(=O)(=O)N3CCCCCC3)ccc2F)c1` the inhibition was 14.8%.
`CN(C)CCN(Cc1ccco1)C(=O)c1oc2ccccc2c1NC(=O)c1ccccc1` was tested, and the inhibition was 18.1%.
In the case of `Cc1ccccc1C(=O)OCc1cc(=O)n2nc(-c3cccs3)sc2n1`, the inhibition is reported as -16%.
`CCOC(=O)c1c(CN2CCCCC2)n(C)c2cc(Br)c(O)c(CN(C)C)c12` was tested, and the inhibition was active: 60.5%.
Work on `COc1cccc(CCNC(=O)c2c(O)nc3ccccn3c2=O)c1` yielded an inhibition of 0.995%.
In the case of `CCOc1ccccc1NC(=O)c1cnn2c(C(F)F)cc(-c3ccccc3)nc12`, the inhibition is reported as 12.2%.
`COCCCNC(=O)C1CCN(c2nn3cc(-c4ccc(F)cc4)nc3s2)CC1` gave an inhibition of 12.7%.
In the case of `CCOc1ccc(C(=O)Nc2c3c(nn2C(C)(C)C)CSC3)cc1OCC`, the inhibition is reported as active: 30.1%.
Compound `Cc1ccc(OCC(=O)N(Cc2ccco2)Cc2ccc(C)o2)cc1` has an inhibition of -27.3%.
`COc1ccc(-c2cc(C(F)(F)F)n3nc(C(=O)Nc4ccccc4SC)cc3n2)cc1OC` was tested, and the inhibition was -13.4%.
`CCC(C)NC(=O)c1nn(-c2ccc(C)cc2)c(=O)n(C)c1=O` (stereo unspecified) was tested, and the inhibition was 26.4%.
`COc1cc2c(=O)n(CCC(=O)NCC3CCCO3)c(=O)n(CC(=O)Nc3ccc(C)c(C)c3)c2cc1OC` (stereo unspecified) showed an inhibition of -14.1%.
For `CCCCCn1c(-c2ccc(OC)c(OC)c2)nc2ccccc21`, the inhibition was -1.59%.
In the case of `Cc1ccc(Cl)cc1N1CCN(S(=O)(=O)c2ccc3c(c2)CCCN3C(=O)C2CCC2)CC1`, the inhibition is reported as -25.7%.
Work on `O=C(NCCc1ccccc1)c1cc(Sc2cccc(Cl)c2)nc2ccccc12` yielded an inhibition of -4.78%.
`COc1cc(OC)c(NC(=O)Cn2c(=O)oc3cc(S(=O)(=O)N4CCCC4)ccc32)cc1Cl` was tested, and the inhibition was 1.58%.
Work on `Cc1ccc(CN2C(=O)c3oc4ccc(C)cc4c(=O)c3C2c2ccc(O)cc2)cc1` (stereo unspecified) yielded an inhibition of -10.2%.
With `COc1ccc(NS(=O)(=O)c2ccc3[nH]c4c(c3c2)CCCC4)cc1Cl` the inhibition was 5.42%.
Work on `Cc1ccc(C)n1-c1nnc(N2CCCC(C(=O)NCc3cccc(Cl)c3)C2)s1` (stereo unspecified) yielded an inhibition of 0.869%.
In the case of `O=C(NC1CCN(Cc2ccccc2)CC1)c1ccc(Cl)cc1Cl`, the inhibition is reported as active: 61.4%.
In the case of `CCc1ccc(-n2c(Cc3ccccc3)nnc2SCc2nc(-c3cccs3)no2)cc1`, the inhibition is reported as 13.6%.
`CNC(=O)c1ccc(NC(=O)C2CCN(S(=O)(=O)c3cccc(C(F)(F)F)c3)CC2)cc1` was tested, and the inhibition was active: 30.3%.
With `CC1=C(C(=O)NCc2ccc(Cl)cc2)C2(CCCCC2)OC1=O` the inhibition was -6.85%.
Compound `Cc1ccc(/C=C/c2onc(C)c2S(=O)(=O)N2CCC(C(=O)NCC(C)c3ccccc3)CC2)cc1` (stereo unspecified) has an inhibition of 22.8%.
In the case of `CCn1cc(S(=O)(=O)c2cccc(Cl)c2)c(=O)c2cc(F)c(N3CCN(c4ccccc4)CC3)cc21`, the inhibition is reported as 2%.
`Cc1nc2ccn(Cc3cccs3)c(=O)c2cc1C(=O)Nc1ccccc1` was tested, and the inhibition was 1.54%.
In the case of `Cc1ccc(-n2nc(C)c(/C=N/NC(=O)c3cccs3)c2Cl)cc1`, the inhibition is reported as active: 32.5%.
With `Cc1ccccc1C(=O)Nc1nc(-c2nnn(-c3ccc(C(C)C)cc3)c2C)ns1` the inhibition was -2.46%.
For `Cc1ccc(C(C)C)c(OCCNCc2ccccc2)c1`, the inhibition was active: 67.2%.
`CCOc1ccccc1CNC(=O)C1CCN(S(=O)(=O)c2ccc3c(ccn3C)c2)CC1` gave an inhibition of -11.8%.
`Cc1cc(Cl)ccc1NC(=O)CN(c1ccccc1Br)S(C)(=O)=O` showed an inhibition of 13.9%.
Work on `CCOc1ccc(C(=O)NCCS(=O)(=O)N2CCN(c3ccccc3F)CC2)cc1OCC` yielded an inhibition of 26.2%.
`CCc1nn2c(=O)cc(COC(=O)c3ccco3)nc2s1` was tested, and the inhibition was 8.6%.
`Cc1ccc(-c2cn3c(n2)sc2cc(C(=O)NC(C)C45CC6CC(CC(C6)C4)C5)ccc23)cc1` (stereo unspecified) was tested, and the inhibition was -23.4%.
`CCOC(=O)C1CCN(S(=O)(=O)c2csc(C(N)=O)c2)CC1` gave an inhibition of 5.97%.
`COc1ccc(N2CCN(C(=O)c3cc4c(s3)-c3ccccc3OC4)CC2)cc1` showed an inhibition of 15.8%.
With `COc1ccc(N2CC(NC(=O)c3ccc(Br)o3)CC2=O)cc1` (stereo unspecified) the inhibition was 14.2%.
`CCCSc1nc2sc3c(c2c(=O)n1Cc1ccccc1)CC(C)(CC)OC3` (stereo unspecified) gave an inhibition of -8.47%.
In the case of `Cc1ccc(NC(=O)C2CCC(CNS(=O)(=O)c3csc(C(N)=O)c3)CC2)cc1Cl` (stereo unspecified), the inhibition is reported as 3.34%.
Compound `COc1ccc(C2(CNC(=O)C(=O)Nc3ccc(F)cc3)CCCC2)cc1OC` has an inhibition of 5.72%.
`COC(=O)c1nnn(-c2cccc(C)c2)c1C(=O)OC` gave an inhibition of -2.99%.
`CCc1ccccc1NC(=O)C(=O)NCC(c1cccnc1)N1CCN(c2ccccc2F)CC1` (stereo unspecified) showed an inhibition of -3.49%.
Compound `CCOC(=O)c1c(S(=O)(=O)NCC(=O)Nc2cc(C)ccc2C)c(C)n(C)c1C` has an inhibition of -1.84%.
Compound `CCc1nn(Cc2cc(C)ccc2C)c(=O)c2cc3cc(C)ccc3n12` has an inhibition of 13.9%.
With `COc1ccc(C(=O)Oc2cc(N)n(S(=O)(=O)c3ccc(C)cc3)n2)cc1` the inhibition was active: 38.4%.
For `Cc1ccc(NS(=O)(=O)c2ccc3c(c2)CCCN3C(=O)C2CCC2)c(C)c1`, the inhibition was -22.5%.
`CCN1CCN(c2ncc3c(n2)CCN(Cc2ccc(OC(C)C)cc2)C3)CC1` was tested, and the inhibition was 13.9%.
`COc1ccc([N+](=O)[O-])cc1/C=N/NC(=O)/C(=C\c1cccs1)NC(=O)c1ccccc1` was tested, and the inhibition was active: 42.8%.
For `Cc1cccc(-c2nc(SCCCOc3ccc(Cl)c(C)c3)n3[nH]c(=O)cc3n2)c1`, the inhibition was 4.44%.
`CCOC(=O)c1cccc(NC(=O)NCc2ccc3c(c2)CCN3C(=O)c2ccccc2)c1` was tested, and the inhibition was 7.34%.
With `CCOC(=O)c1ccc(-c2ccc(/C=C(\C#N)C(=O)Nc3ccc(OCC)cc3)o2)cc1` the inhibition was -2.76%.
`CCOC(=O)N1CCc2c(sc(NCc3cc(OC)c(OC)cc3OC)c2C(=O)Nc2ccc(OCC)cc2)C1` showed an inhibition of -24.8%.
Work on `CCc1ccc(-n2c(=O)c3cccnc3n2CC(=O)Nc2cc(F)ccc2F)cc1` yielded an inhibition of 6.26%.
With `CCN(CC)C(=O)Cn1cc(SCC(=O)Nc2ccccc2C)c2ccccc21` the inhibition was 6.3%.
With `Oc1cccc(Nc2ncnc3ccccc23)c1` the inhibition was active: 51%.
`COc1ccc(S(=O)(=O)Cc2ccc(C(=O)N3CCN(c4cc(C)ccc4C)CC3)o2)cc1` showed an inhibition of -2.66%.
`O=C(O)c1cccnc1SCc1cccc(Cl)c1` was tested, and the inhibition was -24.3% and active: 44.6%.
For `O=C(Nc1cccc(-c2nc3ccccc3[nH]2)c1)c1c(F)cccc1F`, the inhibition was 10.6%.
Work on `Cc1ccc(C(=O)NCC(=O)OCc2cc(=O)n3nc(C4CC4)sc3n2)cc1` yielded an inhibition of -3.18%.
With `CCOC(=O)c1c(C)oc2nc(C)nc(NCCCN3CCN(c4cc(Cl)ccc4C)CC3)c12` the inhibition was 21.2%.
With `CCOC(=O)c1cccc(NC(=O)Nc2ccc3c(c2)N(C)C(=O)c2ccccc2S3)c1` the inhibition was 9.57%.
With `Cc1ccc(-c2noc(-c3nnn(CC(=O)Nc4cccc(C(F)(F)F)c4)c3N)n2)cc1` the inhibition was 11.6%.
Compound `CCCNC(=O)c1c(NC(=O)c2ccc(C)cc2)sc2c1CCCCC2` has an inhibition of 7.35%.
`CC(=O)N1CCOc2cc(S(=O)(=O)Nc3cc(C(F)(F)F)ccc3Cl)c(C)cc21` was tested, and the inhibition was 19.9%.
